About 4,300 (8.3%) of roughly 52,000 compounds were called active. Cut-off read from the data, not from the text of the source: active = survival mostly below about 52% (no sharp cut-off); inactive = mostly above about 56%. This is one part of the list.

The test system of this assay is DeltatarO mutant. Description: S. aureus survival, RN4220 and DeltatarO strains – OD600, teichoic acid synthesis inhibitors, primary screen (AID 463173). Conditions: S. aureus RN4220 wild type/DeltatarO growth, OD600, 18 h, stronger effect = lower value, screened at 18.75 µg/mL (by protocol).
Turning to `Cc1ccc(OCC(=O)N(Cc2ccco2)Cc2ccc(C)o2)cc1`, the survival was inactive: 65%.
The result for `COc1cc2c(=O)n(CCC(=O)NCC3CCCO3)c(=O)n(CC(=O)Nc3ccc(C)c(C)c3)c2cc1OC` (stereo not given) reads inactive: 58%; that for `CC1=C(C(=O)Nc2ccccc2)C(c2cccs2)n2nc(SCc3ccccc3F)nc2N1` (stereo not given), inactive: 75%; that for `CCOc1ccc(NC(=O)/C(C#N)=C\c2cc(C)n(C)c2C)cc1`, inactive: 68%.
The result for `Cc1ccc(C)c(NC(=O)c2cc(S(=O)(=O)N3CCCCCC3)ccc2F)c1` reads inactive: 102%; that for `Cc1ccccc1NC(=O)CN1CCC(n2nnc3ccccc32)CC1`, inactive: 95%.
The same measure for `CN(C)CCN(Cc1ccco1)C(=O)c1oc2ccccc2c1NC(=O)c1ccccc1`: inactive: 81%; for `Cc1ccccc1C(=O)OCc1cc(=O)n2nc(-c3cccs3)sc2n1`: inactive: 117%.
For the compound `O=C(CSc1nc2ccccc2o1)c1ccc2c(c1)OCCO2`, the survival is inactive: 80%.
The same measure for `CCCc1nn2c(=O)cc(COC(=O)c3ccccc3NC(=O)c3ccc(Cl)cc3)nc2s1`: inactive: 92%.
The same measure for `COc1cc(C2c3c(-c4cc(C)ccc4O)n[nH]c3C(=O)N2CCCO)ccc1OCCC(C)C` (stereo not given): inactive: 58%.
Regarding `CCc1ccccc1Nc1cc(C(=O)NC(C)c2ccccc2)c2ccccc2n1` (stereo not given), the survival is inactive: 86%.
The same measure for `Cc1ccc(NC(=O)C(C)Sc2nc(=O)cc(N)n2-c2ccccc2)cc1` (stereo not given): inactive: 55%; for `CCOC(=O)c1cccc(NC(=O)CCn2nc(C)c(S(=O)(=O)N3CCCCC3)c2C)c1`: inactive: 108%.
The same measure for `CCOc1ccc(NC(=O)CN2CCCN(Cc3cc(C)ccc3C)S2(=O)=O)cc1`: inactive: 71%.
As to `CCOC(=O)c1ccccc1NC(=O)N1CCC(CN2CCCCC2)CC1`, the survival was inactive: 83%.
For the compound `Cc1ccc2c(=O)c(C(=O)c3cccc(Cl)c3)cn(CC(=O)Nc3ccc4c(c3)OCCO4)c2n1`, the survival was inactive: 80%.
The result for `Cn1cc(S(=O)(=O)c2cccc(Cl)c2)c(=O)c2cc(F)c(N3CCN(c4ccccc4)CC3)cc21` reads active: 6%; that for `CC(C)OC(=O)CSc1ncnc2c1cnn2-c1ccccc1`, inactive: 81%.
The result for `COc1ccc(CCCc2nnc(SCC(=O)Nc3ccc(OC)cc3)o2)cc1` reads inactive: 65%; that for `O=C(Nc1cc(F)ccc1F)N1CCC(CN2CCCC2)CC1`, inactive: 84%.
The same measure for `CN1C(=O)Cc2cc(S(=O)(=O)CCC(=O)Nc3ccc(F)c(Cl)c3)ccc21`: inactive: 87%; for `COc1ccc(-c2cc(C(F)(F)F)nc(SCC(=O)NCCc3ccccc3)n2)cc1OC`: inactive: 58%.
Consider `CCc1sc(Nc2cccc(C)c2C)nc1-c1cc2cccc(OC)c2oc1=O`, for which the survival is inactive: 94%.
The result for `COc1cc(OC)cc(-n2c(=O)c3sccc3n(Cc3c(C)cc(C)cc3C)c2=O)c1` reads inactive: 178%.

(Values after PubChem BioAssay AID463173 (ICCB-Longwood Screening Facility, Harvard Medical School, 2010).)
